From publication PMC4336329 (PLoS ONE, 2015)
In all, about 310,000 compounds went through this assay and about 2,200 (0.71%) showed an effect of 50% or more. The effect is printed as a negative number. The list shows a part of the results.

Each molecule was assayed against human ether-à-go-go-related gene (hERG) potassium channel (human, UniProt Q12809) (assay: primary screen, population patch clamp on CHO cells stably expressing hERG).
human ether-à-go-go-related gene (hERG) potassium channel, sequence (Q12809 whole entry, looked up): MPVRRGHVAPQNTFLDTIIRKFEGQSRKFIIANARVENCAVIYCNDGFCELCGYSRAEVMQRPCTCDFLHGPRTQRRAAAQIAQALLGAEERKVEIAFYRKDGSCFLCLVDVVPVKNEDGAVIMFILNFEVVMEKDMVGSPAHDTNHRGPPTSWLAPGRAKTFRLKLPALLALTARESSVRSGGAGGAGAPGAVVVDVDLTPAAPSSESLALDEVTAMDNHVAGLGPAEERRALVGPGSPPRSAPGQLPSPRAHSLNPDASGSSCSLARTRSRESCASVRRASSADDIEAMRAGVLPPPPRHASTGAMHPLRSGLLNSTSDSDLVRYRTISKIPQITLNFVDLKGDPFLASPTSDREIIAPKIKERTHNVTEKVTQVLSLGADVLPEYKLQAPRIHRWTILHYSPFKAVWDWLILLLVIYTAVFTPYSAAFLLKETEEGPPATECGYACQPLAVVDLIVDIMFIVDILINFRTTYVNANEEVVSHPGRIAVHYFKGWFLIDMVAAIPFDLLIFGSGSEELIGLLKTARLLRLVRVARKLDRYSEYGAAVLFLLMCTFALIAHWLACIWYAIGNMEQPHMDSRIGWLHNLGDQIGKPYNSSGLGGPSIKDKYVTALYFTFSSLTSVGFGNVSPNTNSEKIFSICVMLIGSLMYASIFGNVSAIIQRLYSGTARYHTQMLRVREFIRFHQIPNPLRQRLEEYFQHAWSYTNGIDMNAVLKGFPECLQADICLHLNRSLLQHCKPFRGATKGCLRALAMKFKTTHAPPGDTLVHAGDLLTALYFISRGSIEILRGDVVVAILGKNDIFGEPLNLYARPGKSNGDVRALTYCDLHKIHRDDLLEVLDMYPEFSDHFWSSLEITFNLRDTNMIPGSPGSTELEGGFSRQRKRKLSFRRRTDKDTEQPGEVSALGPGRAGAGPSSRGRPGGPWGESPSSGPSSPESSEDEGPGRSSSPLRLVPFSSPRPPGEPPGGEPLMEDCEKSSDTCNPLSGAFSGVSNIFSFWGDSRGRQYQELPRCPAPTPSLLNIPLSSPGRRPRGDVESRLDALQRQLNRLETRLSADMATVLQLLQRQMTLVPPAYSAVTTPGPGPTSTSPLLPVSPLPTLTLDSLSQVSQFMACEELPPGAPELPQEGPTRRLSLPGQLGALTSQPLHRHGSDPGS
For `CSc1ncc(Cl)c(C(=O)Nc2cc(C)ccc2C)n1`, the “hERG current change (%, negative = inhibition) at 1uM” value was 12%.
`CCCCOC(=O)c1ccc(NC(=O)C(=O)NCCN(C)C)cc1` was tested, and the “hERG current change (%, negative = inhibition) at 1uM” value was 3.01%.
`CCOC(=O)c1c(NC(=O)c2ccco2)n(C2CCCCC2)c2nc3ccccc3nc12` was tested, and the “hERG current change (%, negative = inhibition) at 1uM” value was -8.87%.
`COc1ccc(CCNC(=O)CCCNC(=O)Cn2cnc3sc(C)c(C)c3c2=O)cc1OC` was tested, and the “hERG current change (%, negative = inhibition) at 1uM” value was 7.88%.
`S=c1[nH]nc(Nc2cccc(Cl)c2)s1` was tested, and the “hERG current change (%, negative = inhibition) at 1uM” value was 16%.
`CCc1cccc(NC(=O)c2cccc(S(=O)(=O)N3CCN(C)CC3)c2)c1` was tested, and the “hERG current change (%, negative = inhibition) at 1uM” value was -7.15%.
In the case of `CCCOc1ccc(CC2CCC(=O)NC2=O)cc1` (stereo not shown), the “hERG current change (%, negative = inhibition) at 1uM” value is reported as -0.444%.
`CC(=O)OC1COC(n2ccc3ccccc32)C(OC(C)=O)C1OC(C)=O` (stereo not shown) was tested, and the “hERG current change (%, negative = inhibition) at 1uM” value was 11.6%.
For `O=C(O)/C=C/C(=O)Nc1ccc(SC(F)(F)C(F)(F)C(F)(F)F)cc1`, the “hERG current change (%, negative = inhibition) at 1uM” value was 31.8%.
`NNC(=O)c1ccc(COc2ccc3c(c2)CCC3)o1` was tested, and the “hERG current change (%, negative = inhibition) at 1uM” value was 0.612%.
For `CCN(CC)CCOC(=O)C(O)(c1ccccc1)c1ccccc1.Cl`, the “hERG current change (%, negative = inhibition) at 1uM” value was -3.02%.
In the case of `COc1ccc(CNC(=O)C2CCCN2C)cc1OC` (stereo not shown), the “hERG current change (%, negative = inhibition) at 1uM” value is reported as 5.12%.
In the case of `CN(CC1COc2ccccc2O1)C(=S)NC1CCCCC1` (stereo not shown), the “hERG current change (%, negative = inhibition) at 1uM” value is reported as 3.41%.
`O=C(NCC(=O)N(c1cccnc1)C(C(=O)NC1CCCC1)c1cccs1)c1cccs1` (stereo not shown) was tested, and the “hERG current change (%, negative = inhibition) at 1uM” value was 18.7%.
In the case of `CCOC(=O)C1CCCN(CC(=O)c2ccc(F)cc2)C1.O=C(O)C(=O)O` (stereo not shown), the “hERG current change (%, negative = inhibition) at 1uM” value is reported as 7.86%.
`Cc1[nH]c2ccccc2c1C(=O)CN1CCCC1` was tested, and the “hERG current change (%, negative = inhibition) at 1uM” value was 7.66%.
For `O=c1c2ccccc2[nH]c(=S)n1-c1ccc2c(c1)OCCO2`, the “hERG current change (%, negative = inhibition) at 1uM” value was 11.7%.
In the case of `Cn1c(CSc2nc3ccccc3s2)nnc1SCC(=O)NCc1ccccn1`, the “hERG current change (%, negative = inhibition) at 1uM” value is reported as 11%.
For `CCC(C)[C@H](NC(=O)C1CCN(C(=O)[C@H](Cc2ccccc2)NS(=O)(=O)c2ccc(C)cc2)CC1)C(=O)O` (stereo partly shown), the “hERG current change (%, negative = inhibition) at 1uM” value was 16.1%.
With `COc1ccc(NC(=O)C2CCCO2)c(OC)c1` (stereo not shown) the “hERG current change (%, negative = inhibition) at 1uM” value was 14.6%.
For `COc1cccc(SCC(=O)N2CCN(c3ccccc3)CC2)c1`, the “hERG current change (%, negative = inhibition) at 1uM” value was 5.88%.
For `Cc1cc(=O)n2[nH]c(-c3cccc(Cl)c3)cc2n1`, the “hERG current change (%, negative = inhibition) at 1uM” value was 0.243%.
In the case of `COc1ccc(C2CC(c3cccs3)=NN2C(=O)CSC2=NN3CCCC(=O)N=C3S2)cc1` (stereo not shown), the “hERG current change (%, negative = inhibition) at 1uM” value is reported as 7.13%.
For `c1ccc(CCC2Cc3ccccc3N2)cc1` (stereo not shown), the “hERG current change (%, negative = inhibition) at 1uM” value was 18.4%.
For `COCCOC(=O)C1=C(C)NC(=O)NC1c1c(OC)ncnc1OC` (stereo not shown), the “hERG current change (%, negative = inhibition) at 1uM” value was 8.55%.
In the case of `CCCn1c(=O)n(CC(=O)NCC2CCCO2)c(=O)c2c3c(sc21)COC(C)(C)C3` (stereo not shown), the “hERG current change (%, negative = inhibition) at 1uM” value is reported as 17%.
For `Cc1ccc(NC(=O)CCOc2ccccc2)cc1S(=O)(=O)Nc1ccccc1Cl`, the “hERG current change (%, negative = inhibition) at 1uM” value was 4.04%.
For `CS(=O)(=O)N(CC(=O)N1CCCCCC1)c1ccc2c(c1)OCCO2`, the “hERG current change (%, negative = inhibition) at 1uM” value was 11.8%.
With `Cn1c(=O)c(C(=O)Nc2ccccn2)c(O)c2ccccc21` the “hERG current change (%, negative = inhibition) at 1uM” value was 4.95%.
With `O=C(O)c1cc(-c2ccc(Cl)s2)nc2ccccc12` the “hERG current change (%, negative = inhibition) at 1uM” value was 23.9%.
With `CC1CN(CCCOc2ccccc2[N+](=O)[O-])CC(C)O1.O=C(O)C(=O)O` (stereo not shown) the “hERG current change (%, negative = inhibition) at 1uM” value was 6.17%.
In the case of `COC(CNC(=O)c1cc(C(=O)c2c(-c3c(Cl)cccc3Cl)noc2C)c[nH]1)OC`, the “hERG current change (%, negative = inhibition) at 1uM” value is reported as 4.89%.
In the case of `NS(=O)(=O)c1ccc2ccccc2c1`, the “hERG current change (%, negative = inhibition) at 1uM” value is reported as 8.99%.
`CCCCN1C(=O)/C(=C2/C=CC=CN2C)SC1=S` was tested, and the “hERG current change (%, negative = inhibition) at 1uM” value was 4.89%.
In the case of `CN(c1ccc(C(=O)N2CCCCC2)cc1)S(=O)(=O)c1cccs1`, the “hERG current change (%, negative = inhibition) at 1uM” value is reported as 11.7%.
`Cc1ccn2c(=O)nc(SCC(=O)NCc3ccc4c(c3)OCO4)nc2c1` was tested, and the “hERG current change (%, negative = inhibition) at 1uM” value was -10.9%.
In the case of `CC(C)c1ccc(-c2csc(NC(=O)c3cccs3)c2C(=O)O)cc1`, the “hERG current change (%, negative = inhibition) at 1uM” value is reported as 9.39%.
For `C=CCOC(=O)C1=C(C)NC(SCC(=O)Nc2ccc(C)c(Cl)c2)=C(C#N)C1c1ccco1` (stereo not shown), the “hERG current change (%, negative = inhibition) at 1uM” value was 8.57%.
In the case of `CC(C)OC(=O)/C(=C/c1ccco1)c1ccccc1`, the “hERG current change (%, negative = inhibition) at 1uM” value is reported as 6.25%.
`O=C(/C=C/c1cccnc1)c1ccc(F)c(F)c1` was tested, and the “hERG current change (%, negative = inhibition) at 1uM” value was 15.9%.
`Cc1cc(NC(=O)c2cc3cccc([N+](=O)[O-])c3[nH]2)ccc1F` was tested, and the “hERG current change (%, negative = inhibition) at 1uM” value was 11.5%.
For `O=C(O)CCCCn1c(SCc2cc(=O)n3cc(Cl)ccc3n2)nc2ccsc2c1=O`, the “hERG current change (%, negative = inhibition) at 1uM” value was 7.83%.
`COCCN(C(=O)CCC(=O)Nc1ccccn1)C(C(=O)NCCC(C)C)c1ccc(C)cc1` (stereo not shown) was tested, and the “hERG current change (%, negative = inhibition) at 1uM” value was 3.08%.
`Oc1ccc(Br)cc1-c1ccnn1-c1ccccc1` was tested, and the “hERG current change (%, negative = inhibition) at 1uM” value was 12.3%.
With `CCCC(C)NC(=O)c1c2c(nc3ccccc13)CCC2` (stereo not shown) the “hERG current change (%, negative = inhibition) at 1uM” value was 17.7%.
For `Cc1nc2ccccc2c(-c2ccccc2)c1C(=O)c1ccccc1`, the “hERG current change (%, negative = inhibition) at 1uM” value was 14.7%.
For `CN(C(=S)NC(=O)c1ccc(Br)o1)c1ccccc1`, the “hERG current change (%, negative = inhibition) at 1uM” value was 2.62%.
For `O=c1cc(O)n(-c2ccccc2F)c(=S)[nH]1`, the “hERG current change (%, negative = inhibition) at 1uM” value was 9.1%.
With `COc1cccc(-n2c(SCC(=O)O)nnc2-c2cccnc2)c1` the “hERG current change (%, negative = inhibition) at 1uM” value was 3.82%.
For `CSc1ncccc1C(=O)N1CCN(S(=O)(=O)c2ccc3ccccc3c2)CC1`, the “hERG current change (%, negative = inhibition) at 1uM” value was -10.4%.
For `COCCN(C(=O)CCC(=O)Nc1cc(C)on1)C(C(=O)NC1CCCC1)c1ccc(C(C)C)cc1` (stereo not shown), the “hERG current change (%, negative = inhibition) at 1uM” value was 2.64%.
`CCOC(=O)c1ccc(NC2Nc3cc(C)nn3S2)cc1` (stereo not shown) was tested, and the “hERG current change (%, negative = inhibition) at 1uM” value was 6.64%.
`COc1cccc(CN(C)C(=O)c2cc(COc3ccc4ncccc4c3)on2)c1` was tested, and the “hERG current change (%, negative = inhibition) at 1uM” value was 9.2%.
For `O=C(O)CSC1=NC(=Nc2cccc(Cl)c2)C2(CCCCC2)N1c1ccccc1`, the “hERG current change (%, negative = inhibition) at 1uM” value was 19.9%.
For `O=C(O)c1ccc(CSc2nnc(SCc3ccccc3)s2)cc1`, the “hERG current change (%, negative = inhibition) at 1uM” value was 8.83%.
For `Cc1noc(C)c1S(=O)(=O)N1CCCC(C(=O)c2cccc(OC(C)C)c2)C1` (stereo not shown), the “hERG current change (%, negative = inhibition) at 1uM” value was 7.31%.
For `O=C(CN1CCCCCC1)N/N=C/c1ccc(Cl)c(Cl)c1`, the “hERG current change (%, negative = inhibition) at 1uM” value was -6.7%.
`Cc1cc(-c2ccccc2)c(C#N)c(N)n1` was tested, and the “hERG current change (%, negative = inhibition) at 1uM” value was 10.2%.
